Laboratory results: patent publication US9353150B2, “Substituted pyrazino[1′,2′:1 ,5]pyrrolo[2,3-b]-indole-1,4-diones for cancer treatment” (Massachusetts Institute of Technology, priority 2012, dated 2016)
Entries after “also recorded” stand apart in the source; their conditions may differ. For some assays here: For at least one compound, name, drawing or mass did not settle the structure. Some entries share one result that the patent states for a list of compounds.

Key:
[1] = test system: U-937 (hystiocytic lymphoma); test: 72-hour IC50 determination for non-adherent cells using MTS; assay type: cell-based, human; details: for IC50: 72-hour exposure; for reduction of potency on acetylation of the 17,17′-hydroxyl groups: U-937, versus the non-acetylated counterparts
Method: (§1) Certain synthesized compounds were screened for their ability to induce death in two human cancer cell lines: U-937 (leukemic monocyte lymphoma) and HeLa (cervical cancer).
(§2) Cells were grown in media supplemented with fetal bovine serum (FBS) and antibiotics ([…]). Specifically, experiments were performed using the following cell lines and media compositions: U-937, HeLa, H460, and 786-O (RPMI-1640+10% FBS), and MCF7 (EMEM+10% FBS). Cells were incubated at 37° C. in a 5% CO2, 95% humidity atmosphere.
(§3) In a 96-well plate, compounds were pre-added as DMSO stocks in triplicate to achieve a final concentration of 1%. DMSO and cell-free wells served as the live and dead control, respectively. U-937 (5,000 cells/well) cells were distributed in 100 μL media to the compound-containing plate. After 72 hours, cell viability was assessed by adding 20 μL of a PMS/MTS solution (Cory, A. H.; Owen, T. C.; Barltrop, J. A.; Cory, J. G. Cancer Commun. 1991, 3, 207) to each well, allowing the dye to develop at 37° C. until the live control had processed MTS, and reading the absorbance at λ=490 nm. IC50 values were determined from three or more independent experiments using TableCurve (San Jose, Calif.).

[2] = test system: HeLa (cervical carcinoma); test: 72-hour IC50 determination for adherent cells using sulforhodamine B (SRB); assay type: cell-based, human; details: for IC50: 72-hour exposure; for reduction of potency on acetylation of the 17,17′-hydroxyl groups: HeLa, versus the non-acetylated counterparts
Method: as §1, §2
(§4) Adherent cells (HeLa, H460, 786-O, and MCF7) were added into 96-well plates (5,000 cells/well for HeLa cell line; 2,000 cells/well for H460, 786-O, and MCF7 cell lines) in 100 μL media and were allowed to adhere for 2-3 hours. Compounds were solubilized in DMSO as 100× stocks, added directly to the cells (100 μL final volume), and tested over a range of concentrations in triplicate (1% DMSO final) on a half-log scale. Concentrations tested ranged from […] to 10 μM, depending on the potency of the compound. DMSO and cell-free wells served as the live and dead control, respectively. After 72 hours of continuous exposure, the plates were evaluated using the SRB colorimetric assay as described previously (Vichai, V.; Kirtikara, K. Nature Prot. 2006, 1, 1112). Briefly, media was removed from the plate, and cells were fixed by the addition of 100 μL cold 10% trichloroacetic acid in water. After incubating at 4° C. for an hour, the plates were washed in water and allowed to dry. Sulforhodamine B was added as a 0.057% solution in 1% acetic acid (100 μL), and the plates were incubated at room temperature for 30 minutes, washed in 1% acetic acid, and allowed to dry. The dye was solubilized by adding 10 mM Tris base solution (pH 10.5, 200 μL) and incubating at room temperature for 30 minutes. Plates were read at λ=510 nm. IC50 values were determined from three or more independent experiments using TableCurve (San Jose, Calif.).

[3] = test system: human cancer cell lines; test: Anticancer activity in human cancer cell lines, not tied to one cell line; assay type: cell-based; details: for IC50: cell line not named in the sentence (U-937 and HeLa screened), read-out: IC50 (did not display any anticancer activity); for potency relative to epidisulfide 10 (more potent): across the cell lines of Table E1-2
Method: as §1
Certain provided compounds were tested in culture against a panel of three supplementary human cancer cell lines representing three additional tumor histologies (H460, lung carcinoma; 786-O, renal carcinoma; MCF-7, breast carcinoma). As shown in Table E1-2, the ETPs retain their potency across the cell lines. In some embodiments, a provided compound is active in all cell lines. In some embodiments, a provide compound can be used to selectively target certain cells and/or cancers. […] Without the intention to be limited, Applicant notes that certain cell lines could be more sensitive to provided compounds; for example, U-937 and HeLa are slightly more sensitive to the ETPs than the other three cell lines.
as §4, §3

[4] = test system: U-937 cells; test: Apoptosis in U-937 cells with Annexin V-FITC and propidium iodide (AnnV/PI), flow cytometry; assay type: cell-based, human; details: 24 hours, compounds at 100-times their 72-hour IC50
Method: DMSO stocks of compounds were added to a 24-well plate in singlicate (0.2% DMSO final). After compound addition, 0.5 mL of a U-937 cell suspension (250,000 cells/mL) was added and allowed to incubate for 24 hours. Following treatment, the cell suspensions were transferred to flow cytometry tubes and pelleted (500 g, 3 min). The media was removed by aspiration, and cells were re-suspended in 200 μL AnnV binding buffer (10 mM HEPES, pH 7.4, 140 mM NaCl, 2.5 mM CaCl2) with 5 μg/mL PI and 1:90 dilution of AnnV. Samples were analyzed using flow cytometry.

SMILES: CN1C(=O)[C@@]23C[C@]4([C@]56C[C@@]78SS[C@@](CO)(C(=O)N7[C@H]5Nc5ccccc56)N(C)C8=O)c5ccccc5N[C@@H]4N2C(=O)[C@]1(CO)SS3 [Compound 4, (+)-chaetocin A]
- IC50 [1]: 0.75 to 1.3 nM
- IC50 [2]: 5.6 to 6.9 nM

SMILES: CN1C(=O)[C@@]23C[C@]4([C@]56C[C@@]78SSS[C@@](CO)(C(=O)N7[C@H]5Nc5ccccc56)N(C)C8=O)c5ccccc5N[C@@H]4N2C(=O)[C@]1(CO)SSS3 [Compound 5, (+)-chaetocin C]
- IC50 [1]: 0.75 to 1.3 nM
- IC50 [2]: 5.6 to 6.9 nM

SMILES: CS[C@H]1C(=O)N2[C@H]3Nc4ccccc4[C@@]3(c3c[nH]c4ccccc34)C[C@]2(SC)C(=O)N1C [Compound 7, (+)-gliocladin B]
- IC50 [3]: > 10000 nM

SMILES: CC(=O)OC[C@]12SS[C@@]3(C[C@]4([C@]56C[C@@]78SS[C@@](COC(C)=O)(C(=O)N7[C@H]5Nc5ccccc56)N(C)C8=O)c5ccccc5N[C@@H]4N3C1=O)C(=O)N2C [Compound 15]
- reduction of potency on acetylation of the 17,17′-hydroxyl groups [1]: 5.8- to 12.9 fold
- reduction of potency on acetylation of the 17,17′-hydroxyl groups [2]: 2.0- to 11.1 fold

SMILES: CC(=O)OC[C@]12SSS[C@@]3(C[C@]4([C@]56C[C@@]78SSS[C@@](COC(C)=O)(C(=O)N7[C@H]5Nc5ccccc56)N(C)C8=O)c5ccccc5N[C@@H]4N3C1=O)C(=O)N2C [Compound 16]
- reduction of potency on acetylation of the 17,17′-hydroxyl groups [1]: 5.8- to 12.9 fold
- reduction of potency on acetylation of the 17,17′-hydroxyl groups [2]: 2.0- to 11.1 fold

SMILES: CN1C(=O)C23CC4(c5c[nH]c6ccccc56)c5ccccc5N(S(=O)(=O)c5ccccc5)C4N2C(=O)C1SS3 (centres unmarked) [Compound 26, C3-(Indol-3′-yl) epidithiodiketopiperazine]
- IC50 [1]: 2.8 to 14.8 nM
- IC50 [2]: 22 to 75 nM

SMILES: COc1ccc([C@]23C[C@@]45SS[C@@H](C(=O)N4[C@H]2N(S(=O)(=O)c2ccccc2)c2ccccc23)N(C)C5=O)cc1 [Compound 33, C3-(p-Methoxyphenyl)epidithiodiketopiperazine]
- induction of apoptosis (phosphatidylserine exposure / propidium iodide inclusion) [4]: induce caspase-dependent apoptotic cell death; also recorded: induce apoptosis

SMILES: CN1C(=O)C23CC4(c5c[nH]c6ccccc56)c5ccccc5N(S(=O)(=O)c5ccccc5)[C@@H]4N2C(=O)[C@H]1SC(=S)S3 (some centres unmarked) [Compound 36, C3-(Indol-3′-yl)dithiepanethione]
- potency relative to epidisulfide 10 (more potent) [3]: up to 6.7 fold

SMILES: CS[C@H]1C(=O)N2[C@H]3N(S(=O)(=O)c4ccccc4)c4ccccc4[C@@]3(c3c[nH]c4ccccc34)C[C@]2(SC)C(=O)N1C [Compound 39]
- IC50 [3]: > 10000 nM

SMILES: COCCOCS[C@H]1C(=O)N2[C@H]3N(S(=O)(=O)c4ccccc4)c4ccccc4[C@@]3(c3cn(C(=O)OC(C)(C)C)c4ccccc34)C[C@]2(SCOCCOC)C(=O)N1C [Compound 42, C3-(N-Boc-indol-3′-yl)bis(S-MEM)ether]
- IC50 [3]: > 10000 nM

SMILES: CC(=O)S[C@H]1C(=O)N2[C@H]3N(S(=O)(=O)c4ccccc4)c4ccccc4[C@@]3(c3c[nH]c4ccccc34)C[C@]2(SC(C)=O)C(=O)N1C [Compound 44, C3-(Indol-3′-yl)bisthloaeetate]
- potency relative to epidisulfide 10 (more potent) [3]: up to 6.7 fold

SMILES: COCCOCS[C@H]1C(=O)N2[C@H]3N(S(=O)(=O)c4ccccc4)c4ccccc4[C@@]3(c3cn(C(=O)OC(C)(C)C)c4ccccc34)C[C@]2(S)C(=O)N1C [Compound 47, C3-(N-Boc-indol-3′-yl) S15-MEM ether]
- IC50 [3]: > 10000 nM
